The whole screen tested about 150,000 compounds, of which about 540 (0.36%) showed an effect of 50% or more. This is one part of the list.
Test system: Plasmodium falciparum
Assay: Primary screen in NF54 nanoGlo assay, in single point, at 2uM, 72h; a lower Z score goes with more inhibition
Type: functional, Erythrocyte
Conditions: timepoint 72 hour

Row | Structure (SMILES) | % Inhibition [%] | Z score
1 | O=C(NC[C@H]1CC2c3ccccc3C1c1ccccc12)c1cnsn1 | 16 | -2.28
2 | CCC(CC)c1cc(NC(=O)c2cc(C)no2)[nH]n1 | 31 | -3.53
3 | CCCn1cc(S(=O)(=O)NCc2ccc(C)cc2)c2cccnc21 | -5 | 0.93
4 | C[C@@H]1Oc2ccc(NC(=O)Cn3cccn3)cc2NC1=O | 8 | -0.91
5 | Cc1ccc(C(=O)N2CCCC[C@H]2c2nc(-c3ccncc3)no2)s1 | -21 | 2.2
6 | CCCCNC(=O)c1ccc2c(c1)nc(C1CCN(S(=O)(=O)c3ccc(C)cc3)CC1)n2C1CCCCC1 | 10 | -1.56
7 | N#C[C@H]1CCCN(C(=O)c2cccc(-c3ccncc3F)c2)C1 | -17 | 1.81
8 | COc1cccc(C(=O)O[C@@H](C)C(=O)Nc2cc(C)no2)c1O | -4 | 0.53
9 | COC1C2CC3CN(S(=O)(=O)C4CCOC4C)C1C3C2 (stereo not drawn) | -13 | 1.15
10 | O=C1C2C3c4ccccc4C(c4ccccc43)[C@@H]2C(=O)N1Cc1ccc(F)cc1 (stereo partly drawn) | -8 | 1
11 | O=C(NCCOCC1CC1)N1CC2CC=CCC2C1 (stereo not drawn) | -13 | 1.92
12 | Fc1ccccc1CN1CCC(COCc2ccccc2)CC1 | -15 | 1.67
13 | CCn1ccnc1CNCCCNc1ncccn1 | -6 | 0.63
14 | CCc1ccccc1C(=O)OCc1nccn1C | -3 | 0.26
15 | CN(C)C(=O)CCc1nc(COc2ccc(C(C)(C)C)cc2)n[nH]1 | 2 | -0.3
16 | CNc1ccccc1CN[C@H]1CCO[C@@H]1c1ccnn1-c1ccccc1 | 7 | -1.29
17 | Cc1cc(C(=O)Nc2cccc3ccccc23)cc2c1N(C)S(=O)(=O)c1ccccc1-2 | 9 | -1.08
18 | CCN1Cc2nc(OC)c(CNC(=O)c3cccc(-c4nc[nH]n4)c3)cc2C1=O | -6 | 1.09
19 | CN1Cc2c(NC(=O)N3CCCC34CCC4)cccc2C1=O | 1 | -0.23
20 | CCC1CCCCN1CN1C(=O)C2CC=CCC2C1=O (stereo not drawn) | 1 | -0.09
21 | CCN1C(=O)COc2ccc(-c3noc([C@H]4CC(=O)N(c5ccc(OC)cc5)C4)n3)cc21 | -10 | 1.13

Row | Structure (SMILES) | % Inhibition [%] | Z score
22 | CC(C)(C)c1nnc2n1CCN(C(=O)N[C@H]1CCCCC1(C)C)C2 | -2 | 0.15
23 | Cc1nn(-c2nc3ccccc3s2)c2nc(-c3cccnc3)cc(C(F)(F)F)c12 | 2 | -0.24
24 | CCCS(=O)(=O)NC(=O)Cc1ccccc1F | 3 | -0.54
25 | COc1ccc([C@H]2C[C@@H](O)[C@@H](O)[C@@H]2NC(=O)c2ccc(C(F)(F)F)cc2)cc1 | 15 | -1.78
26 | O=C1NCCN(C(=O)NC2(C3CCCCC3)CC2)[C@H]1c1ccc(F)cc1 | -3 | 0.71
27 | Cc1ccc(N2CCCN(Cc3ccc(OC(F)(F)F)cc3)C2=O)c(NC(=O)c2ccc(Cl)cc2)c1 | -12 | 1.77
28 | CCCN(Cc1sc(C)nc1C)S(=O)(=O)N1CCCCC1 | -9 | 0.77
29 | NC(=O)C1CCN(C2CN(C(=O)CCc3ccc(Br)cc3)C2)CC1 | -6 | 0.88
30 | CC(C)(C)c1ccn(C2(C(=O)O)CCN(C(=O)[C@H]3CC34CCC4)CC2)n1 | -13 | 2.5
31 | CCc1nc2c(N3CC[C@@H](CO)[C@@H](O)C3)ncnc2o1 | -9 | 1.43
32 | Cc1ccncc1C(=O)N1C[C@H](C)C[C@H](O)C1 | 10 | -0.8
33 | CCN(C)CC(=O)N1CCC2(CCC(=O)N(Cc3cccnc3)C2)CC1 | -3 | 0.56
34 | CC1CCC(C)N1C(C)C(=O)Nc1cc(-c2nccn2C)n[nH]1 (stereo not drawn) | 2 | -0.17
35 | O=C(CCc1c[nH]cn1)N1CCCCCO1 | 18 | -2.27
36 | CCC[C@H]1C=CCN1C(=O)c1cn2cc(Cl)cnc2n1 | -18 | 2.01
37 | Cc1ccc(CCNC(=O)N2CCC(C)CC2C)cn1 (stereo not drawn) | 2 | -0.35
38 | CCc1ccccc1N1CCN(S(=O)(=O)CC23CCC(CC2=O)C3(C)C)CC1 (stereo not drawn) | 0 | 0.01
39 | O[C@H]1CCCN(c2ccnc(NCC3(Cn4ccnc4)CC3)n2)C1 | 9 | -1.19
40 | O=C1C2N=NN(c3ccc(F)c(Cl)c3)C2C(=O)N1c1ccc2c(c1)CCC2 (stereo not drawn) | -9 | 1.02
41 | O=C(Nc1ccncn1)NC1(C(F)(F)F)CCCCC1 | 0 | -0.01
42 | CCn1ncc(C)c1NC(=O)C[C@H]1C(=O)NCCN1Cc1ccccc1 | -6 | 0.99

Row | Structure (SMILES) | % Inhibition [%] | Z score
43 | CCc1ccc(C(=O)N(CCOC)Cc2c(C)nn(-c3cccc(F)c3)c2N2CCN(CC)CC2)cc1 | 5 | -0.6
44 | COc1ccc(OC)c(C(=O)N2CCN(C[C@H]3CCCCN3C)CC2)c1 | -7 | 0.91
45 | Cc1c(S(=O)(=O)c2ccc(F)cc2)c(N)n(C2CCCCC2)c1C | -2 | 0.26
46 | CN(Cc1ccccc1NCc1nc(=O)[nH][nH]1)C(=O)c1cccs1 | -5 | 0.92
47 | Cc1ccc(C(=O)N2CCOC[C@@H](CN(C)C)C2)n1C(F)F | 0 | 0.03
48 | CN1CCN(C[C@H]2CCCN(c3c(Cl)cccc3C#N)C2)CC1 | -10 | 0.87
49 | O=C(N[C@H]1CCN(C(=O)C2CCC2)C1)C1CCCC1 | -4 | 0.6
50 | CN1CCc2ncnc(NCc3nc4c(F)c(F)ccc4[nH]3)c2C1 | -5 | 1.11
51 | CC[C@H](C)NC(=O)CCNCC1CCCCCC1 | -6 | 0.87
52 | CNCc1cccc(NC(=O)c2ccc(C)nc2C2CC2)c1 | 2 | -0.32
53 | CCn1cc(S(=O)(=O)N2CCC3(CC2)CN(C(C)C)[C@@H]3c2ccccc2)cn1 | 3 | -0.47
54 | COc1ccc(-c2c3c(=O)n(C)c(=O)n(C)c3c3n2C(C)(C)CO[C@@H]3c2ccc(Cl)cc2)cc1 | 0 | -0.05
55 | O=C(NCC(=O)N1CCCC1)c1ccc(N2CCCC2)nc1 | -8 | 1.11
56 | Cc1ccccc1Cn1ncnc1[C@H]1CCCN(C(C)C)C1 | 8 | -1.11
57 | COc1cccc(CN(C)Cc2cnn(C(C)C)c2)n1 | -4 | 0.44
58 | COc1ccc(C(O)CN2CCC(c3ccccc3)C2)cc1F (stereo not drawn) | 36 | -2.43
59 | CCc1ncc(NC(=O)N2CCC(CCN3CCCC[C@@H]3C)CC2)cn1 | 8 | -1.64
60 | COc1ccc([C@@H]2C=C(c3ccccc3)Nc3nc(NS(=O)(=O)c4ccc(C)cc4)nn32)cc1 | 9 | -1.14
61 | CCN1C(=O)C[C@H](N(C)CC(=O)Nc2c(C)cc(C)cc2C)C1=O | 1 | -0.22
62 | Cc1ccc(C(C)(C)CN(C)Cc2nsc(N(C)C)n2)cc1 | -16 | 2.95
63 | COc1ccccc1CCN1C(=O)c2ccccc2N[C@]12C(=O)N(C)c1ccccc12 | -8 | 0.99

Row | Structure (SMILES) | % Inhibition [%] | Z score
64 | O=C(Nc1nc(CC(=O)N2CCOCC2)cs1)c1ccco1 | -13 | 1.47
65 | CCn1c(CC2CCNCC2)nn(Cc2noc(-c3ccccc3)n2)c1=O | -10 | 1.92
66 | Clc1cc(N2CCOCC2)c2nonc2c1 | -8 | 1.28
67 | O=C(NCc1cnc2cnccn12)c1conc1-c1ccccc1 | -11 | 2.08
68 | CCc1noc(-c2cnc3nc(C)ccc3c2NCC(C)C)n1 | -9 | 1.07
69 | COc1cccc(CN2CCC[C@H](n3cc(C)cn3)C2)c1F | 9 | -1.17
70 | CC1(C)C[C@@](C)(c2ccc(Br)cc2)c2ccccc2N1C(=O)c1ccccc1 | 4 | -0.5
71 | CCCN1C(=O)c2cc(C(=O)Nc3ccc(OC)c(OC)c3)ccc2[C@H]1Nc1ccc(OC)c(OC)c1 | -13 | 1.73
72 | C[C@@H](c1ccon1)N(C)c1ccc(-c2nc(-c3ccccc3F)no2)cn1 | -8 | 0.98
73 | CC(C)CCc1noc(CN2C(=O)c3ccccc3CS2(=O)=O)n1 | 0 | 0
74 | Cc1ccc(C(=O)NC2(c3ncccn3)CCOCC2)o1 | -5 | 0.91
75 | Cc1cc(Cl)cc(C(=O)O[C@@H](C)c2nnc(C)o2)c1 | 12 | -1.6
76 | CC1c2[nH]c3ccccc3c2C[C@H]2C(=O)N(c3ccccc3C(=O)NCc3ccccc3)C(=O)N12 (stereo partly drawn) | -1 | 0.22
77 | COc1nccnc1N1CCC[C@H](Cn2ccnc2)C1 | 1 | -0.26
78 | O=C(c1c(F)cccc1F)N1CC[C@H](c2ccc3c(c2)CCO3)C1 | -18 | 2.14
79 | O=C(Nc1ccc(-c2cc3ccccc3[nH]2)cc1)[C@@H]1CCCN1C1CCOCC1 | -11 | 1.34
80 | Cc1nnsc1CNC(=O)N1CCN(Cc2ccc3c(c2)OCO3)CC1 | -3 | 0.5
81 | Cc1ncsc1C(=O)N1c2ccccc2C[C@@H]1C | -3 | 0.31
82 | CCc1ccc(-c2cc3c(=O)n(CC(=O)N4CC(C)CC(C)C4)ncn3n2)cc1 (stereo not drawn) | 32 | -1.05
83 | CCc1nsc(N2CCO[C@@H](CN3CCOCC3)C2)n1 | -21 | 2.35
84 | CCc1cnccc1C(=O)N[C@H](c1nccs1)C(F)(F)F | 2 | -0.35
